Source: the supplement of paper PMC8728848
The list shows a part of the results.

Columns and labels:
Assay in all cases: glycan array binding signal (z-score within array); higher = stronger binding
Settings in all cases: glycan notation: IUPAC condensed, linker removed
[1] = target: Fuc(a1-2)Gal
Method in brief: (§1)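 Glycan array binding is given as a within-array Z-score, which can be read as non-binding when negative. The arrays, 3228 of them, came from the Consortium for Functional Glycomics database and were retained only where the protein sequence was available. Z-scores were averaged across arrays of the same protein sequence at different concentrations or buffers and across linkers.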

[2] = target: Fuc(a1-2)Gal(b1-3)GalNAc
Method in brief: as §1

[3] = target: Fuc(a1-2)Gal(b1-3)GalNAc(a1-3)[Fuc(a1-2)]Gal(b1-4)Glc
Method in brief: as §1

[4] = target: Fuc(a1-2)Gal(b1-3)GalNAc(a1-3)[Fuc(a1-2)]Gal(b1-4)GlcNAc
Method in brief: as §1

[5] = target: Fuc(a1-2)Gal(b1-3)GalNAc(b1-3)Gal
Method in brief: as §1

[6] = target: Fuc(a1-2)Gal(b1-3)GalNAc(b1-3)Gal(a1-4)Gal(b1-4)Glc
Method in brief: as §1

[7] = target: Fuc(a1-2)Gal(b1-3)GalNAc(b1-4)[Neu5Ac(a2-3)]Gal(b1-4)Glc
Method in brief: as §1

[8] = target: Fuc(a1-2)Gal(b1-3)GlcNAc
Method in brief: as §1

[9] = target: Fuc(a1-2)Gal(b1-3)GlcNAc(b1-2)Man(a1-3)[Fuc(a1-2)Gal(b1-3)GlcNAc(b1-2)Man(a1-6)]Man(b1-4)GlcNAc(b1-4)GlcNAc
Method in brief: as §1

[10] = target: Fuc(a1-2)Gal(b1-3)GlcNAc(b1-2)Man(a1-3)[Fuc(a1-2)Gal(b1-3)GlcNAc(b1-2)Man(a1-6)]Man(b1-4)GlcNAc(b1-4)[Fuc(a1-6)]GlcNAc
Method in brief: as §1

[11] = target: Fuc(a1-2)Gal(b1-3)GlcNAc(b1-3)Gal(b1-4)Glc
Method in brief: as §1

[12] = target: Fuc(a1-2)Gal(b1-3)GlcNAc(b1-3)GalNAc
Method in brief: as §1

[13] = target: Fuc(a1-2)Gal(b1-3)GlcNAc(b1-3)[Fuc(a1-2)Gal(b1-3)GlcNAc(b1-6)]GalNAc
Method in brief: as §1

[14] = target: Fuc(a1-2)Gal(b1-3)GlcNAc(b1-3)[Gal(b1-4)GlcNAc(b1-6)]Gal(b1-4)Glc
Method in brief: as §1

[15] = target: Fuc(a1-2)Gal(b1-3)GlcNAc(b1-3)[Neu5Ac(a2-6)Gal(b1-4)GlcNAc(b1-6)]Gal(b1-4)Glc
Method in brief: as §1

[16] = target: Fuc(a1-2)Gal(b1-3)GlcNAc6S
Method in brief: as §1

[17] = target: Fuc(a1-2)Gal(b1-3)[Fuc(a1-4)]GlcNAc
Method in brief: as §1

[18] = target: Fuc(a1-2)Gal(b1-3)[Fuc(a1-4)]GlcNAc(b1-2)Man(a1-3)[Fuc(a1-2)Gal(b1-3)[Fuc(a1-4)]GlcNAc(b1-2)Man(a1-3)]Man(b1-4)GlcNAc(b1-4)GlcNAc
Method in brief: as §1

[19] = target: Fuc(a1-2)Gal(b1-3)[Fuc(a1-4)]GlcNAc(b1-2)Man(a1-3)[Fuc(a1-2)Gal(b1-3)[Fuc(a1-4)]GlcNAc(b1-2)Man(a1-6)]Man(b1-4)GlcNAc(b1-4)[Fuc(a1-6)]GlcNAc(b1-4)[Fuc(a1-6)]GlcNAc
Method in brief: as §1

[20] = target: Fuc(a1-2)Gal(b1-3)[Fuc(a1-4)]GlcNAc(b1-3)[Fuc(a1-3)[Gal(b1-4)]GlcNAc(b1-6)]Gal(b1-4)Glc
Method in brief: as §1

[21] = target: Fuc(a1-2)Gal(b1-3)[Fuc(a1-4)]GlcNAc(b1-3)[Gal(b1-4)GlcNAc(b1-6)]Gal(b1-4)Glc
Method in brief: as §1

[22] = target: Fuc(a1-2)Gal(b1-4)Glc
Method in brief: as §1

[23] = target: Fuc(a1-2)Gal(b1-4)Glc6S
Method in brief: as §1

[24] = target: Fuc(a1-2)Gal(b1-4)GlcNAc
Method in brief: as §1

[25] = target: Fuc(a1-2)Gal(b1-4)GlcNAc(b1-2)Man
Method in brief: as §1

[26] = target: Fuc(a1-2)Gal(b1-4)GlcNAc(b1-2)Man(a1-3)[Fuc(a1-2)Gal(b1-4)GlcNAc(b1-2)Man(a1-6)]Man(b1-4)GlcNAc(b1-4)GlcNAc
Method in brief: as §1

[27] = target: Fuc(a1-2)Gal(b1-4)GlcNAc(b1-2)Man(a1-3)[Fuc(a1-2)Gal(b1-4)GlcNAc(b1-2)Man(a1-6)]Man(b1-4)GlcNAc(b1-4)[Fuc(a1-6)]GlcNAc
Method in brief: as §1

[28] = target: Fuc(a1-2)Gal(b1-4)GlcNAc(b1-2)[Fuc(a1-2)Gal(b1-4)GlcNAc(b1-4)]Man(a1-3)[Fuc(a1-2)Gal(b1-4)GlcNAc(b1-2)Man(a1-6)]Man(b1-4)GlcNAc(b1-4)GlcNAc
Method in brief: as §1

[29] = target: Fuc(a1-2)Gal(b1-4)GlcNAc(b1-3)Gal(b1-4)GlcNAc
Method in brief: as §1

[30] = target: Fuc(a1-2)Gal(b1-4)GlcNAc(b1-3)Gal(b1-4)GlcNAc(b1-2)Man(a1-3)[Fuc(a1-2)Gal(b1-4)GlcNAc(b1-3)Gal(b1-4)GlcNAc(b1-2)Man(a1-6)]Man(b1-4)GlcNAc(b1-4)GlcNAc
Method in brief: as §1

[31] = target: Fuc(a1-2)Gal(b1-4)GlcNAc(b1-3)Gal(b1-4)GlcNAc(b1-3)Gal(b1-4)GlcNAc
Method in brief: as §1

[32] = target: Fuc(a1-2)Gal(b1-4)GlcNAc(b1-3)GalNAc
Method in brief: as §1

[33] = target: Fuc(a1-2)Gal(b1-4)GlcNAc(b1-3)[Fuc(a1-2)Gal(b1-4)GlcNAc(b1-6)]GalNAc
Method in brief: as §1

[34] = target: Fuc(a1-2)Gal(b1-4)GlcNAc(b1-3)[Fuc(a1-3)[Gal(b1-4)]GlcNAc(b1-6)]Gal(b1-4)Glc
Method in brief: as §1

[35] = target: Fuc(a1-2)Gal(b1-4)GlcNAc(b1-6)GalNAc
Method in brief: as §1

[36] = target: Fuc(a1-2)Gal(b1-4)GlcNAc6S
Method in brief: as §1

[37] = target: Fuc(a1-2)Gal(b1-4)[Fuc(a1-3)]GlcNAc
Method in brief: as §1

[38] = target: Fuc(a1-2)Gal(b1-4)[Fuc(a1-3)]GlcNAc(b1-2)Man(a1-3)[Fuc(a1-2)Gal(b1-4)[Fuc(a1-3)]GlcNAc(b1-2)Man(a1-6)]Man(b1-4)GlcNAc(b1-4)[Fuc(a1-6)]GlcNAc
Method in brief: as §1

[39] = target: Fuc(a1-2)Gal(b1-4)[Fuc(a1-3)]GlcNAc(b1-2)[Fuc(a1-2)Gal(b1-4)[Fuc(a1-3)]GlcNAc(b1-4)]Man(a1-3)[Fuc(a1-2)Gal(b1-4)[Fuc(a1-3)]GlcNAc(b1-2)Man(a1-6)]Man(b1-4)GlcNAc(b1-4)GlcNAc
Method in brief: as §1

[40] = target: Fuc(a1-2)Gal(b1-4)[Fuc(a1-3)]GlcNAc(b1-3)Gal(b1-4)[Fuc(a1-3)]GlcNAc
Method in brief: as §1

[41] = target: Fuc(a1-2)Gal(b1-4)[Fuc(a1-3)]GlcNAc(b1-3)Gal(b1-4)[Fuc(a1-3)]GlcNAc(b1-3)Gal(b1-4)[Fuc(a1-3)]GlcNAc
Method in brief: as §1

[42] = target: Fuc(a1-2)Gal(b1-4)[Fuc(a1-3)]GlcNAc(b1-3)GalNAc
Method in brief: as §1

[43] = target: Fuc(a1-2)Gal(b1-4)[Fuc(a1-3)]GlcNAc(b1-3)[Neu5Ac(a2-6)Gal(b1-4)GlcNAc(b1-6)]Gal(b1-4)Glc
Method in brief: as §1

[44] = target: Fuc(a1-2)Gal3S(b1-4)GlcNAc
Method in brief: as §1

[45] = target: Fuc(a1-2)Gal6S(b1-3)GlcNAc
Method in brief: as §1

[46] = target: Fuc(a1-2)Gal6S(b1-3)GlcNAc6S
Method in brief: as §1

[47] = target: Fuc(a1-2)Gal6S(b1-4)Glc
Method in brief: as §1

[48] = target: Fuc(a1-2)Gal6S(b1-4)Glc6S
Method in brief: as §1

[49] = target: Fuc(a1-2)[Gal(a1-3)]Gal
Method in brief: as §1

[50] = target: Fuc(a1-2)[Gal(a1-3)]Gal(b1-3)GalNAc
Method in brief: as §1

[51] = target: Fuc(a1-2)[Gal(a1-3)]Gal(b1-3)GalNAc(b1-3)Gal(a1-4)Gal(b1-4)Glc
Method in brief: as §1

[52] = target: Fuc(a1-2)[Gal(a1-3)]Gal(b1-3)GlcNAc
Method in brief: as §1

[53] = target: Fuc(a1-2)[Gal(a1-3)]Gal(b1-3)GlcNAc(b1-2)Man(a1-3)[Fuc(a1-2)[Gal(a1-3)]Gal(b1-3)GlcNAc(b1-2)Man(a1-6)]Man(b1-4)GlcNAc(b1-4)GlcNAc
Method in brief: as §1

[54] = target: Fuc(a1-2)[Gal(a1-3)]Gal(b1-3)GlcNAc(b1-2)Man(a1-3)[Fuc(a1-2)[Gal(a1-3)]Gal(b1-3)GlcNAc(b1-2)Man(a1-6)]Man(b1-4)GlcNAc(b1-4)[Fuc(a1-6)]GlcNAc
Method in brief: as §1

[55] = target: Fuc(a1-2)[Gal(a1-3)]Gal(b1-3)GlcNAc(b1-3)GalNAc
Method in brief: as §1

[56] = target: Fuc(a1-2)[Gal(a1-3)]Gal(b1-3)GlcNAc(b1-6)GalNAc
Method in brief: as §1

[57] = target: Fuc(a1-2)[Gal(a1-3)]Gal(b1-4)Glc
Method in brief: as §1

[58] = target: Fuc(a1-2)[Gal(a1-3)]Gal(b1-4)GlcNAc
Method in brief: as §1

[59] = target: Fuc(a1-2)[Gal(a1-3)]Gal(b1-4)GlcNAc(b1-2)Man
Method in brief: as §1

[60] = target: Fuc(a1-2)[Gal(a1-3)]Gal(b1-4)GlcNAc(b1-2)Man(a1-3)[Fuc(a1-2)[Gal(a1-3)]Gal(b1-4)GlcNAc(b1-2)Man(a1-6)]Man(b1-4)GlcNAc(b1-4)GlcNAc
Method in brief: as §1

B1: RBMC2 (Vibrio cholerae) (protein)
chain: KISVRSGFAIDAIGASASTLVGGTGGNLNAAVNVKDIKAIDLTWGKYYWGGYHLLALDFRMSNGSVISMGSKNYAYSKQTERFTVPAGSRIKGIKAWTAGWLLDGVQFELA
- glycan array binding signal (z-score) [1]: -0.247
- glycan array binding signal (z-score) [2]: -0.229
- glycan array binding signal (z-score) [3]: -0.388
- glycan array binding signal (z-score) [4]: -0.358
- glycan array binding signal (z-score) [5]: -0.1
- glycan array binding signal (z-score) [6]: -0.089
- glycan array binding signal (z-score) [7]: -0.315
- glycan array binding signal (z-score) [8]: -0.258
- glycan array binding signal (z-score) [9]: 1.42
- glycan array binding signal (z-score) [10]: -0.055
- glycan array binding signal (z-score) [11]: -0.299
- glycan array binding signal (z-score) [12]: -0.315
- glycan array binding signal (z-score) [13]: -0.25
- glycan array binding signal (z-score) [14]: -0.308
- glycan array binding signal (z-score) [15]: -0.25
- glycan array binding signal (z-score) [16]: -0.344
- glycan array binding signal (z-score) [17]: -0.261
- glycan array binding signal (z-score) [18]: -0.045
- glycan array binding signal (z-score) [19]: -0.365
- glycan array binding signal (z-score) [20]: -0.224
- glycan array binding signal (z-score) [21]: -0.282
- glycan array binding signal (z-score) [22]: -0.416
- glycan array binding signal (z-score) [23]: -0.289
- glycan array binding signal (z-score) [24]: -0.356
- glycan array binding signal (z-score) [25]: -0.138
- glycan array binding signal (z-score) [26]: 1.19
- glycan array binding signal (z-score) [27]: 0.062
- glycan array binding signal (z-score) [28]: 0.016
- glycan array binding signal (z-score) [29]: -0.244
- glycan array binding signal (z-score) [30]: 3.69
- glycan array binding signal (z-score) [31]: -0.422
- glycan array binding signal (z-score) [32]: -0.386
- glycan array binding signal (z-score) [33]: -0.474
- glycan array binding signal (z-score) [34]: -0.262
- glycan array binding signal (z-score) [35]: -0.267
- glycan array binding signal (z-score) [36]: -0.409
- glycan array binding signal (z-score) [37]: -0.357
- glycan array binding signal (z-score) [38]: 0.413
- glycan array binding signal (z-score) [39]: -0.23
- glycan array binding signal (z-score) [40]: -0.291
- glycan array binding signal (z-score) [41]: -0.273
- glycan array binding signal (z-score) [42]: -0.365
- glycan array binding signal (z-score) [43]: -0.425
- glycan array binding signal (z-score) [44]: -0.403
- glycan array binding signal (z-score) [45]: -0.443
- glycan array binding signal (z-score) [46]: -0.121
- glycan array binding signal (z-score) [47]: -0.38
- glycan array binding signal (z-score) [48]: -0.398
- glycan array binding signal (z-score) [49]: -0.326
- glycan array binding signal (z-score) [50]: -0.353
- glycan array binding signal (z-score) [51]: -0.396
- glycan array binding signal (z-score) [52]: -0.409
- glycan array binding signal (z-score) [53]: 0
- glycan array binding signal (z-score) [54]: -0.367
- glycan array binding signal (z-score) [55]: -0.278
- glycan array binding signal (z-score) [56]: -0.122
- glycan array binding signal (z-score) [57]: -0.428
- glycan array binding signal (z-score) [58]: -0.444
- glycan array binding signal (z-score) [59]: -0.275
- glycan array binding signal (z-score) [60]: 0.631
